Assay results: paper PMC5836133
The list shows a part of the results. At the low end of the ranking, values are background and their order means little.

Tested on: T1, GST-NbGlk1(82-244)
T1 sequence: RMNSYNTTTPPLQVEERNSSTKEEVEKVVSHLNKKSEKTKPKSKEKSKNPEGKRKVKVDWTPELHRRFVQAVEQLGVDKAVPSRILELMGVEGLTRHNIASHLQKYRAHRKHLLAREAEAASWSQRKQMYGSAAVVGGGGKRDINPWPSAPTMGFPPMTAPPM
Experiment: protein-binding microarray;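 further: rank-based score ranging −0.5 to +0.5 with E above 0.45 taken as significant binding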
Conditions: NbGlk1 is a Golden2-like transcription factor of Nicotiana benthamiana; high values mean tight binding; most listed sequences are background and not binding sites; double strand, one strand shown

Sequence | binding signal [E-score]
ATGGTCAC | -0.179
AGTAAGCA | 0.0152
AGGTAACG | -0.116
ACGCTACA | 0.0146
AAGTTCAG | -0.0445
AGCTTGCG | -0.0296
AGACCATA | -0.045
ATCGCGTG | 0.304
AGCTTCAC | -0.128
CACAGGAG | 0.0136
AGGATCCT | 0.307
AGCTTCCA | -0.125
ACGTAGTA | -0.00289
ACGAGTAC | 0.00865
AGCACGTC | -0.274
CACTCAGA | 0.0425
ACGTCCCC | -0.142
ACTTTTAG | -0.148
AATGACAC | -0.207
AATGCCCT | -0.19
ACACGACA | -0.0768
ACGCTGAC | -0.196
ATGAGTTG | -0.0729
ACCTCGCC | -0.219
AGATTCTA | 0.451

Sequence | binding signal [E-score]
AACGATGT | -0.0855
AGTAGCAT | -0.0693
ATGGTAAG | -0.0179
AAGACCTC | -0.238
CACAAGGG | -0.244
AAGGGTTG | -0.265
AAGATATC | 0.475
ATCGTCGG | 0.0875
AGACAGCC | -0.248
ACTACAAT | 0.157
AATAAGCC | -0.017
AATTTCAG | 0.134
AATACTCG | 0.0319
CACTGGAC | -0.0809
ATCTCCCC | 0.301
AATTCAAG | 0.0601
ACGACATG | -0.0832
AGCCACTC | -0.298
AGGACAAC | -0.147
AAGGGACC | -0.263
AATTACCG | 0.185
AGGTCACG | -0.288
AAATCGGG | 0.354
ATGTCCCA | -0.126
AACGTTTC | 0.00568

Sequence | binding signal [E-score]
AAGAGGGG | -0.141
CACACTTA | -0.0798
AAACTAGG | 0.0238
AGTTCCTC | -0.213
CACATCGA | 0.0129
ACAACGGC | -0.0792
AATTAACA | 0.0796
ACGTTTCA | -0.0261
AGAGGCCA | -0.268
AGTACAGG | -0.0766
AGTTATGG | -0.0727
AAACGAAA | 0.165
AACGGTCA | -0.152
CAGACTTA | -0.143
ACCGTGTC | -0.13
AAGTTTAG | -0.0409
ACAAGGCG | -0.142
AACGGTTG | 0.0221
CAAGTTGC | -0.176
ATACATTC | 0.14
AATACGGA | 0.178
ACGCGGCA | -0.0595
ATCTGATA | 0.345
AGCACTAT | 0.00798
AGCTACCG | -0.213

Sequence | binding signal [E-score]
CAGAACAA | -0.0731
ACATTCCT | 0.0632
ACCCATCC | -0.193
AACGTGCC | -0.235
AGCAACGA | -0.116
ACATTGCC | -0.054
ACGAAGCC | -0.138
AATCAGGA | 0.394
CAAAAATG | 0.0155
CAGAACGG | 0.0192
ACAGTTCT | -0.124
ATACGCTC | 0.161
AGGCGTAG | -0.325
AGAGCTCA | -0.217
AAGTCATT | -0.0303
AGGGACGG | -0.169
ACGGTCGG | -0.159
ATTCGCTC | 0.231
ATGAATCG | 0.103
ACGGATTG | 0.277
ATAAAGTA | 0.115
ATTATAAC | 0.0834
AGATACCA | 0.204
ACGCGCAC | -0.0139
AGTCTTTA | 0.036

Sequence | binding signal [E-score]
CAACTTAC | -0.00594
AAACTATC | 0.0464
ATCAAGCC | -0.0609
AGCGTCTA | -0.0432
ACGTACCC | -0.0848
CAACTGAC | -0.103
AAAATGGA | -0.0966
AGTTAAAC | -0.0875
AGAATAGC | -0.148
CACTTAGG | -0.108
AGCGCAGC | -0.307
AGACGGGC | -0.191
ACGTGCCC | -0.0766
CACGCCTA | -0.0916
AGCACTAA | -0.139
AGATGTAT | 0.121
ACTCGTGC | -0.127
ATTGATGG | -0.188
AAAGCGGG | -0.0831
CACTAACC | -0.178
ACCGAAAT | 0.338
CACTCTCC | -0.0783
AACCTAAG | -0.17
AATTAGGC | 0.126
ACCGGGCT | -0.279

Sequence | binding signal [E-score]
ACTTGATA | 0.132
AGGGCTAA | -0.183
CAAGTGAA | -0.119
AAGCGGAT | 0.227
AACGCATC | -0.0345
AACAATAA | 0.137
AGCGGTGA | -0.125
AGTCCCCA | -0.247
AGGGAAAG | -0.0816
AAGACGTA | -0.0953
AATTGTAG | 0.0583
AGCTCCAG | -0.264
ATTGAGCA | -0.0458
CACGGTTA | -0.0224
ATGCGTAA | 0.21
ACTTCTTG | -0.0327
ACTTTGAA | 0.022
ACTTGAAC | 0.0737
ATTCTCGA | 0.308
AATATAGG | 0.145
CAGATCGG | 0.215
AGAGTTGC | -0.0483
AAGTGATG | 0.154
AAGCAATC | 0.386
ATCTGACG | 0.181

Sequence | binding signal [E-score]
CAGACAAA | 0.01
ACTCCGTG | -0.194
AATGTAAT | 0.353
ATGGTTAG | -0.0381
ACGAGTTA | -0.0647
ACAGGAGC | -0.102
AATGTACG | -0.0754
AGGATCGG | 0.086
ACTGAGCC | -0.289
ACAGTAAG | 0.0152
AGGAGCAT | -0.231
ATCTAAGG | 0.143
ATTAAAGC | 0.00237
ACTGGTCT | -0.205
AACACTTG | -0.0396
AATCCTGG | 0.363
AGGTATAA | -0.0275
ATAACCTA | -0.0859
ATGTATGA | -0.042
AATGTGGT | 0.0152
ACGTGCCT | -0.292
ACGAGAAT | 0.31
